In the GPR68 mutational scans of Howard et al. (2025):

B1: GPR68, Q15743 (parent)
chain: MGNITADNSSMSCTIDHTIHQTLAPVVYVTVLVVGFPANCLSLYFGYLQIKARNELGVYLCNLTVADLFYICSLPFWLQYVLQHDNWSHGDLSCQVCGILLYENIYISVGFLCCISVDRYLAVAHPFRFHQFRTLKAAVGVSVVIWAKELLTSIYFLMHEEVIEDENQHRVCFEHYPIQAWQRAINYYRFLVGFLFPICLLLASYQGILRAVRRSHGTQKSRKDQIQRLVLSTVVIFLACFLPYHVLLLVRSVWEASCDFAKGVFNAYHFSLLLTSFNCVADPVLYCFVSETTHRDLARLRGACLAFLTCSRTGRAREAYPLGAPEASGKSGAQGEEPELLTKLHPAFQTPNSPGSGGFPTGRLA

Key:
[1] = variants of: B1; assay: cAMP reporter score (Enrich2 score, wild type = 0); higher = more signal; HEK293T, FACS bins
[2] = variants of: B1; assay: surface expression score (Enrich2 score, wild type = 0); higher = more signal; HEK293T, FACS bins

Row | Variant | cAMP reporter score ([1]; pH 5.5) | cAMP reporter score ([1]; pH 6) | cAMP reporter score ([1]; pH 6, modulator: ogerin) | cAMP reporter score ([1]; pH 6.5, modulator: ogerin) | surface expression score [2]
1 | G362K | 0.678 | 0.288 | 0.881 | 0.203 | 0.242
2 | G362L | 0.786 | 1.62 | 0.633 | 1.44 | -0.094
3 | G362M | 0.576 | 0.187 | 0.65 | -0.295 | 0.24
4 | G362N | 0.071 | – | 0.97 | – | 1.33
5 | G362P | -0.369 | -0.775 | -0.397 | -0.049 | 0.02
6 | G362Q | -0.199 | -0.332 | -0.516 | -0.282 | -0.267
7 | G362R | -1.28 | -0.965 | -1.12 | -1.27 | -1.61
8 | G362S | 0.409 | 0.451 | 0.643 | 0.516 | -0.452
9 | G362T | 1.36 | 1.05 | – | 1.33 | 0.145
10 | G362W | -0.125 | 0.296 | 0.03 | -0.281 | -1.2
11 | G362Y | 0.577 | 0.375 | 0.555 | -0.179 | 0.173
12 | G362_R363insGS | 0.975 | – | 0.387 | 2.45 | 0.751
13 | R363_A365del | 0.383 | -0.69 | 0.063 | 0.334 | -0.048
14 | R363_L364del | -0.1 | – | 1.02 | -0.035 | 0.163
15 | L364_A365del | 1.57 | – | 1.02 | 0.69 | 1.32
16 | L364_A365insGS | 0.58 | 1.88 | 0.177 | – | 1.44
17 | L364_A365insGSG | 1.13 | 0.565 | 1.25 | 0.889 | 1.15
18 | T18D | – | -0.445 | 0.137 | – | -0.448
19 | T18_I19del | – | -1.21 | – | -0.195 | -1.13
20 | H20_Q21insGSG | – | -0.099 | -1.4 | -1.18 | -2.62
21 | V26R | – | -1.57 | -0.744 | -1.02 | -2.02
22 | V26S | – | -0.724 | -1.1 | -1.58 | –
23 | V27_Y28insGSG | – | -0.595 | -1.35 | -1.64 | -1.91
24 | C40R | – | 0.001 | – | – | -3.03
25 | G46M | – | -1.39 | -1.03 | -1.74 | -2.23
26 | R53_N54insGSG | – | 0.361 | – | -0.439 | –

Row | Variant | cAMP reporter score ([1]; pH 5.5) | cAMP reporter score ([1]; pH 6) | cAMP reporter score ([1]; pH 6, modulator: ogerin) | cAMP reporter score ([1]; pH 6.5, modulator: ogerin) | surface expression score [2]
27 | L60_C61del | – | 0.479 | -0.663 | -1.93 | -2.77
28 | P75T | – | -0.482 | – | – | -0.428
29 | F76W | – | -0.246 | 0.059 | -0.035 | -0.449
30 | F76_W77insGS | – | -0.953 | – | – | -1.72
31 | L92E | – | -0.661 | -0.447 | -2.75 | –
32 | S93_C94insGSG | – | -1.24 | -0.639 | -0.539 | -0.126
33 | I99_L101del | – | -1.21 | – | -1.62 | -2.29
34 | L100F | – | -0.4 | – | -0.432 | -0.369
35 | L100V | – | 0.057 | -1.09 | – | -0.273
36 | L101T | – | -0.851 | -3.37 | – | –
37 | N104W | – | 0.057 | – | – | –
38 | I105G | – | -0.547 | -0.731 | -0.967 | -3.95
39 | I105H | – | -0.55 | -0.444 | -0.603 | -2.96
40 | I105N | – | -0.246 | -0.253 | – | –
41 | I105R | – | -0.042 | -2.31 | – | -0.408
42 | S108M | – | -1.1 | -2.11 | – | –
43 | F111K | – | -1.16 | -1.7 | -1.63 | -2.34
44 | F111Y | – | -0.542 | -0.661 | – | -1.36
45 | L112D | – | -0.534 | -1.06 | – | –
46 | L112F | – | -0.673 | -0.652 | -0.412 | -0.375
47 | I115K | – | -0.587 | – | -0.5 | -2.5
48 | I115L | – | -0.875 | -0.221 | -0.71 | –
49 | S116K | – | -1.45 | -0.679 | – | -0.393
50 | V117del | – | -0.753 | – | -1.54 | –
51 | P126F | – | 1.9 | -0.326 | -0.446 | –
52 | P126W | – | -0.781 | -0.606 | -1.13 | -2.69

Row | Variant | cAMP reporter score ([1]; pH 5.5) | cAMP reporter score ([1]; pH 6) | cAMP reporter score ([1]; pH 6, modulator: ogerin) | cAMP reporter score ([1]; pH 6.5, modulator: ogerin) | surface expression score [2]
53 | H130F | – | -0.687 | 0.029 | -0.43 | -1.73
54 | H130I | – | 0.437 | – | 0.225 | 0.555
55 | H130_Q131insGSG | – | -0.248 | -1.46 | – | -2.96
56 | Q131W | – | 2.08 | -1.38 | – | –
57 | K136Q | – | 1.68 | -0.266 | 0.222 | –
58 | A138K | – | -1.45 | 0.394 | -1.35 | –
59 | V144P | – | 0.298 | -2.54 | -1.32 | -2.49
60 | A147R | – | -2.07 | -1.85 | 0.468 | -1.11
61 | A147W | – | -0.377 | – | -0.431 | -0.415
62 | Y155A | – | 1.09 | 0.796 | -0.425 | 0.233
63 | Y155V | – | 0.884 | 0.92 | 0.821 | –
64 | F156N | – | 0.486 | -0.666 | – | -2.03
65 | F156W | – | -0.474 | -0.602 | – | –
66 | H159I | – | -1.48 | – | -1.52 | -0.897
67 | H159P | – | -1.04 | -1.61 | -1.37 | -0.377
68 | E160I | – | -0.2 | -0.702 | -0.4 | 0.526
69 | E160M | – | 3.92 | 1.27 | 4.51 | 1.41
70 | E160N | – | 1.76 | 0.986 | 2.95 | –
71 | E160P | – | 2.41 | 0.459 | – | -0.199
72 | E161T | – | 3.46 | – | – | -0.057
73 | E161V | – | 2.45 | – | – | –
74 | H169_V171del | – | -0.826 | -1.62 | -0.572 | –
75 | Y176D | – | -0.943 | -0.248 | -0.434 | -1.32
76 | Y176K | – | -1.05 | – | -2.12 | -0.808
77 | P177I | – | -0.582 | -0.696 | – | -0.397
78 | R183H | – | -1.08 | -0.681 | -0.214 | -0.138

The least precise scores are not listed. Not listed are two conditions whose scores span a narrow range. In variant names, del marks residues removed and ins residues inserted between the two positions. For some assays here: How much ogerin was present is not stated here.
